# Source: the supplement of paper PMC11417369
# The other results are listed elsewhere or left out.
# Test system: PfHDP1 homeodomain (GST-tagged)
# Test: gcPBM binding intensity (ln(normalized median fluorescence intensity)); higher = stronger DNA binding
# Outline: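 Binding intensity is the highest Masliner-normalised natural-log median intensity over replicate spots in either probe orientation. To obtain it, GST-tagged P. falciparum DNA-binding domains made in E. coli were incubated for 1 h on an Agilent 4 × 180k array of primer-extended double-stranded 36-bp intergenic genomic probes plus negative controls. Detection used Alexa488 anti-GST antibody with scanning at 488 nm.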
row,Sequence,gcPBM binding intensity (ln)
1,TTATGATGGTCTTTATAAGGGCACATTAAATTCGGC [TGCATGCA_negctrl_site166],6.46
2,AAACTATTCACTATAATACATTAGAAGTGAATAAAA [TGCATGCA_negctrl_site498],6.21
3,ATCATTTTTAAAGGAACACACAAAAAAAGTTATAAT [CACACA_site6761],6.86
4,TATATATATATATATACACACAAAAAAATAAATTCT [CACACA_site98],9.33
5,ATTTATTTTAATAATTGTACATGTTATTTTATATAT [XGTACX_site2667],6.3
6,TACTTTTCATCTTCTTAACACACAAAAAAAAAAAAA [CACACA_site9290],6.53
7,ACAAGGAATATAAAAAGTACATAAAATACATAAAAA [XGTACX_site1217],6.56
8,CCATTTACATTGTGAAGTACTAAAAAAAAATGTAGA [XGTACX_site7882],6.87
9,ATATAAATATAAATATATATGTATAAATATAAATAT [CACACA_negctrl_site247],6.15
10,ATAATTTGATGGTTAACACACATATATATTATATAT [CACACA_site2449],6.76
11,TATGGATGTATTCATACATGCACACGTACATATTTA [TGCATGCA_site991],7.74
12,ATATATTATTATAACTGTACTTTTTTTGTGGTTAAT [XGTACX_site8266],6.64
13,TATGCGTATATATAAATACACACCAAATGTTAATAT [CACACA_site1713],6.48
14,CCACGTATAATATGTACACACACATAAATACAAAAA [CACACA_site4660],6.67
15,AATTAAATTATAAGCACACACATATATATATATATA [CACACA_site3351],9.33
16,TAAAAAATGTTATATACACACAGTATAAAAAAAAAT [CACACA_site7808],6.65
17,TATAAATATAAATACACACACATATATATTATATAT [CACACA_site4496],6.63
18,ACCTATTTCAAACACACACACACACTAGCAAACATA [CACACA_site4695],7.26
19,ATATATATATATATGTGTACATAATAACTTTGCTTA [XGTACX_site1255],9.17

row,Sequence,gcPBM binding intensity (ln)
1,TATATATATATATGTTGTACATATTTAAATGTTTAT [XGTACX_site5437],9.06
2,CTTATTTCCTTTTGTAGTACCTTATAATATATATAA [XGTACX_site8873],7.12
3,GGGAAGTAGTAGTAATGTACTTATTTATTATGTGAC [XGTACX_site3985],6.63
4,TTATATATTTTTTGCACACCAAAAAAGAGAATATTC [CACACA_site2730],10
5,TTCTATTTGTAAAATTGTACAAAATAAATAACAAAA [XGTACX_site1007],6.59
6,TAATAATAGTACTCACATCAAAGTATTATTAAAAAT [TGCATGCA_negctrl_site496],6.36
7,GCATTTCTACTAAAAATACACACGATGATACAACGA [CACACA_site1756],6.63
8,AATAAATCTTTTTGTTGTACTAAAAATATTATTAGC [XGTACX_site3335],5.92
9,AAATTGTGTTCATCAGCACACACAACATCATGTAAT [CACACA_site8556],6.49
10,TTAATATATTATATTTGTACATATATATATATACAA [XGTACX_site4798],6.46
11,CGAAAGAAAAAAAGCACACACAGTTTTGAGCAATGA [CACACA_site2109],8.82
12,ACAAAAAAGTAAAAAGTGCATGTAAAATATAAGTAT [GTGCAC_site9438],8.36
13,TAAATATATAATTGTAGTACTGTTTTATGTTCATAA [XGTACX_site1020],6.17
14,AAAAAATTTCAAATAACACACACTAATATATATATG [CACACA_site1426],6.69
15,AATATTCACATTTGTTGTACATTCCTAGTTATATAA [XGTACX_site491],7.02
16,AAGGAAAATTTTTGGTGTACACAAAAAAATCCAAAA [XGTACX_site3596],7.25
17,TAAACAGATATATTTTGTACATATTGTATATTTTGT [XGTACX_site713],6.12
18,ACACATATGACAAATAGTACATAAATATATAAATAT [XGTACX_site7141],6.43
19,TATATATCGCCCTTCACACACACACGGATATAAATA [CACACA_site7221],7.09

row,Sequence,gcPBM binding intensity (ln)
1,ATAATAAATATATAATGTACATATTATGTTCTTTAT [XGTACX_site8655],6.3
2,CGCTCTTATAAATGTTGTACATAAAACTGTTCATTA [XGTACX_site3409],6.49
3,TTTTGTAGATATTGAAGTACAAAAAAAATGTAAAAG [XGTACX_site5905],6.83
4,ATCGGTAATATTAACACACACATTTATATATATTTA [CACACA_site1084],6.83
5,TCACTACATTTTGGACGTACACAACTTGATATATTG [XGTACX_site4775],6.87
6,TTTTTTTTTTTTTTTTGTACATATAAAAATACGTAA [XGTACX_site6003],6.59
7,CACACGCACAGACACACACACACACGGATATAAATA [CACACA_site6301],7.76
8,AAATCTTAACTCTATGCACACATAAAAGTATATAAA [CACACA_site8709],9.66
9,ATGATATACTTGAGTGTGCACAAACTATTACTTACA,11
10,ATATATATATATATATGTACATATTTGATTTTTCTT [XGTACX_site8171],9.3
11,ACAACATATGTTATCACACACATATAAATATAAATA [CACACA_site7038],6.5
12,ATTTTGATGATGTATGCACACATTGAAAATGAGAAA [CACACA_site2916],8.96
13,CTCTACGAATTCATAGTGCAAAGAGCTAATTTTTTC [GTGCAC_site9710],7.29
14,TCTTTTATGATATTTACACACAAACGTGAGATAGCT [CACACA_site2312],6.63
15,AACATTATGTTTATTTGTACATATAAATATATGTAA [XGTACX_site7389],6.3
16,GATCATTCAGTTTTATCACACACAATCAAACATATA [CACACA_site8882],6.79
17,ATATTTTGATAATATTGTACAAAAACATTAAAATGT [XGTACX_site8361],6.29
18,CATAATGTAAATAAGTGTACACATATATAATACATA [XGTACX_site3108],6.87
19,TTTTTTAATATATTATTATAAATATTTTTTATGTGT [GTGCAC_negctrl_site712],6.46
